Measured values: patent US6660767B2, “Coumarin compounds as microtubule stabilizing agents and therapeutic uses thereof” (The Regents of the University of California, priority 2001, dated 2003)

System: microtubule plus ends
Assay: Steady-state dynamic instability of individual microtubules by DIC video microscopy
Type: biochemical, bovine
Settings: plus ends at steady state
Description: Analysis of dynamic instability behavior of individual microtubules at steady state was conducted with real-time DIC video microscopy as described by Walker et al. (1988) J. Cell Biol. 107:1437-1448 and Panda et al. (1995) Biochem 34:9921-9929, both of which are herein incorporated by reference. A Hamamatsu C2400 Newvicon video camera was used to capture the images of microtubules which were enhanced with a Hamamatsu DVS3000 digital image processor. Analysis of length changes was performed using a video analysis software program designed by N. Gliksman at the University of North Carolina.
Microtubules were grown at the ends of sea urchin flagellar axonemal fragments (seeds) to distinguish the plus and minus ends. The microtubules were allowed to achieve polymer-mass steady state which took less than about 30 minutes, and analysis of the steady-state dynamics was carried out for about 30 minutes to about 45 minutes without deterioration of the microtubules or any detectable changes in dynamics. The individual dynamic instability parameters were analyzed quantitatively. These included the rates of growing and shortening, the lengths of time microtubules grow and shorten, the mean lengths of each growing or shortening event, the transition frequencies from the growing or attenuated state to shortening or from shortening to the growing or attenuated or paused state, the percentage of total time the microtubules spend growing, shortening, or in the attenuated state, and the overall dynamicity, the combined total observable growing and shortening per unit time. See Kowalski, R. J. et al. (1993) 26(4):282-290, which is herein incorporated by reference.
Tubulin pellets were thawed and centrifuged at 4° C. to remove any aggregated or denatured tubulin. The purified tubulin was mixed with axoneme seeds and polymerized in PMME buffer (87 mM PIPES, 36 mM MES, 1.4 mM MgCl2, 1 mM EGTA, pH 6.8) comprising 1 mM GTP in the presence or absence of coumarin compounds. […].
After 35 minutes of incubation, samples of microtubule suspensions (2.5 μl and 2.0 μl) were prepared for video microscopy, and the dynamics of individual microtubules were recorded at 37° C. as described previously (Panda et al. (1995) Biochem. 34:9921-9929, which is herein incorporated by reference).
The microtubule was determined to be in a growing phase if the microtubule increased in length by >0.2 μM at a rate >0.15 μm/min and in a shortening phase if the microtubule shortened in length by >0.2 μM at a rate >0.3 μm/min. Length changes equal to or less than 0.2 μm over the duration of six data points were considered as attenuation phases. The same tubulin preparation for all experiments was used and for preliminary experiments, an average of about 10 to about 15 microtubules was measured for each experimental condition, and for the results provided in Table 1, about 20 to about 30 microtubules were analyzed for each experimental condition.
The catastrophe frequency (transition from the growing or attenuated state to shortening) was calculated by dividing the number of catastrophes by the sum of the total time spent in the growing plus attenuated states for all microtubules for a particular condition. The rescue frequency (transition from shortening to growing or attenuation, excluding new growth from a seed) was calculated by dividing the total number of rescue events by the total time spent shortening for all microtubules for a particular condition. Control microtubules alternated between phases of growing and shortening, but also spent a small percentage of time in an attenuated state.

## O=c1oc2ccccc2c(O)c1Cc1c(O)c2ccccc2oc1=O [dicoumarol]
Dicoumarol 0.04 μM
  Mean Duration Shortening: 0.37 ± 0.13 min
  Mean Rate Growing: 0.61 ± 0.07 μm/min
  Mean Rate Shortening: 18.90 μm/min
  Total Time Attenuated: 17.7%
  Total Time Growing: 60.3%
  Total Time Shortening: 22.0%
  Transition Frequencies Catastrophe: 0.70 events/min
  Transition Frequencies Rescue: 2.00 events/min
Dicoumarol 0.1 μM
  Mean Duration Shortening: 1.10 ± 0.43 min
  Mean Rate Growing: 0.53 ± 0.10 μm/min
  Mean Rate Shortening: 12.10 μm/min
  Total Time Attenuated: 37.6%
  Total Time Growing: 34.7%
  Total Time Shortening: 27.8%
  Transition Frequencies Catastrophe: 0.22 events/min
  Transition Frequencies Rescue: 0.38 events/min
Dicoumarol 1.0 μM
  Mean Duration Shortening: 0.86 ± 0.34 min
  Mean Rate Growing: 0.63 ± 0.08 μm/min
  Mean Rate Shortening: 7.80 ± 4.80 μm/min
  Total Time Attenuated: 50.5%
  Total Time Growing: 32.3%
  Total Time Shortening: 17.3%
  Transition Frequencies Catastrophe: 0.24 events/min
  Transition Frequencies Rescue: 1.03 events/min
Dicoumarol 10.0 μM
  Mean Duration Shortening: 0.51 ± 0.15 min
  Mean Rate Growing: 0.63 ± 0.10 μm/min
  Mean Rate Shortening: 7.40 ± 2.40 μm/min
  Total Time Attenuated: 71.2%
  Total Time Growing: 20.7%
  Total Time Shortening: 8.1%
  Transition Frequencies Catastrophe: 0.11 events/min
  Transition Frequencies Rescue: 1.20 events/min
Dicoumarol 50.0 μM
  Mean Duration Shortening: 1.40 ± 0.07 min
  Mean Rate Growing: 0.54 ± 0.07 μm/min
  Mean Rate Shortening: 1.10 ± 0.20 μm/min
  Total Time Attenuated: 51.3%
  Total Time Growing: 41.9%
  Total Time Shortening: 6.8%
  Transition Frequencies Catastrophe: 0.07 events/min
  Transition Frequencies Rescue: 0.80 events/min
